Test results as given in the RNAGym collection of RNA variant scans (doi:10.1073/pnas.2313332121).
Variants at the floor of the assay are shown more often than the library holds them.

B1: TPR 5TU (parent)
chain: GGAUCUUCUCGAUCUAACAAAAAAGACAAAUCUGCCACAAAGCUUGAGAGCAUCUUCGGAUGCAGAGGCGGCAGCCUUCGGUGGCGCGAUAGCGCCAACGUUCUCAACUAUGACACGCAAAACGCGUGCUCCGUUGAAUGGAGUUUAUCAUG

Variants of: B1
Assay: polymerase ribozyme fitness, log enrichment relative to wild type (log ratio); higher = more active; in vitro selection for triplet polymerase activity
In short: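 Mutant libraries of both subunits of a heterodimeric triplet polymerase ribozyme were PCR-built, transcribed, and selected once in triplicate, with frozen incubation at −7 °C and capture of gel-excised extended constructs on streptavidin beads before RT-PCR. Illumina sequencing of input and output libraries was filtered to genotypes with ≥10 input reads and ≥1 read per output. Fitness is the logarithm of genotype enrichment over wild-type enrichment, using inverse-variance-weighted replicate averages. The logarithm is base 2.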
For GGAUCUUCUCGAUCUAACAAAAAAGACAAAUCUGCCACAAAGCUUGAGAGCAUCUUCGGAUGCAGAGGCGGCAGCCUUCGGUGGCGCGAUAGCGUCAACGUCCUCAACUAUGACACGCAAAACGUGUGCUCCGUUGAAUGGAGUAUAUUAUG [C95U U102C C125U U145A C149U], the “polymerase ribozyme fitness (log ratio)” value was no more than -4.2.
With GGAUCUUCUCGAUCUAACAAAAAAGACAAAUCUGCCACAAAGCUUGAGAGCAUCUUCGGAUGCAGAGGCGGCAGCCUUCGGUGGCGCGAUAGCGCAAACGUUCUCAACUAUGACACGCAAAACGCGUGCUCGGUUGAAUGGAGUUUAUCAUG [C96A C132G] the “polymerase ribozyme fitness (log ratio)” value was -3.72.
In the case of GGAUCUUCUCGAUCUAACAAAAAAGACAAAUCUGCCACAAAGCUUGAGAGCAUCUUCGGAUGCAGAGGCGGCAGCCUUCGGUGGCGCGAUAGCGCAAACGUUCUCAAAUAUGACACGCAAAACGCGUGCUCCGUUGAAUGCAGUUUAUCAUG [C96A C108A G141C], the “polymerase ribozyme fitness (log ratio)” value is reported as no more than -4.2.
In the case of GGAUCUUCUCGAUCUAACAAAAAAGACAAAUCUGCCACAAAGCUUGAGAGCAUCUUCGGAUGCAGAGGCGGCAGCCUUCGGUGGCGCGAUAGCGCGAACGUUCUCAACUAUGACACGCUAAACGCGUGCUCCGUUGAAUGGAGUUUAUCAUG [C96G A119U], the “polymerase ribozyme fitness (log ratio)” value is reported as -2.52.
In the case of GGAUCUUCUCGAUCUAACAAAAAAGACAAAUCUGCCACAAAGCUUGAGAGCAUCUUCGGAUGCAGAGGCGGCAGCCUUCGGUGGCGCGAUAGCGCAAACGUUCUCAACUAUGACACGCAAAACGCGAGCUCCGUUGAAUGGAGUUUAUCAUG [C96A U127A], the “polymerase ribozyme fitness (log ratio)” value is reported as -3.79.
For GGAUCUUCUCGAUCUAACAAAAAAGACAAAUCUGCCACAAAGCUUGAGAGCAUCUUCGGAUGCAGAGGCGGCAGCCUUCGGUGGCGCGAUAGCGUCAACGUGCUCAACUAUGACACGCAAAACGCGUGCUCCGUUGAAUGGAGUUUAUCAUG [C95U U102G], the “polymerase ribozyme fitness (log ratio)” value was -1.19.
In the case of GGAUCUUCUCGAUCUAACAAAAAAGACAAAUCUGCCACAAAGCUUGAGAGCAUCUUCGGAUGCAGAGGCGGCAGCCUUCGGUGGCGCGAUAGCGCAAACGUUCUCAACUAUGACACGCAAAACGCGUGCUCCGUUGAAUGGAGUUUAUCAUU [C96A G152U], the “polymerase ribozyme fitness (log ratio)” value is reported as -2.51.
In the case of GGAUCUUCUCGAUCUAACAAAAAAGACAAAUCUGCCACAAAGCUUGAGAGCAUCUUCGGAUGCAGAGGCGGCAGCCUUCGGUGGCGCGAUAGCGCAAACGUUCUCAACUAUGACACGCAUAACGCGUGCUCCGUUGAAUUGAGUUUAUCAUG [C96A A120U G140U], the “polymerase ribozyme fitness (log ratio)” value is reported as -3.09.
With GGAUCUUCUCGAUCUAACAAAAAAGACAAAUCUGCCACAAAGCUUGAGAGCAUCUUCGGAUGCAGAGGCGGCAGCCUUCGGUGGCGCGAUAGCGCGAACGUUCUCAACUAUGACACGCAAAGCGCGUGCUCCGUUGAAGGGAGUUUAUCAUG [C96G A122G U139G] the “polymerase ribozyme fitness (log ratio)” value was 0.0535.
With GGAUCUUCUCGAUCUAACAAAAAAGACAAAUCUGCCACAAAGCUUGAGAGCAUCUUCGGAUGCAGAGGCGGCAGCCUUCGGUGGCGCGAUAGCGCAAACGCUCUCAACAAUGACACGAAAAACGCGUGCUCCGUUGAAUGGAGUUUAUCAUG [C96A U101C U109A C118A] the “polymerase ribozyme fitness (log ratio)” value was -1.54.
In the case of GGAUCUUCUCGAUCUAACAAAAAAGACAAAUCUGCCACAAAGCUUGAGAGCAUCUUCGGAUGCAGAGGCGGCAGCCUUCGGUGGCGCGAUAGCGCGAUCGUUGUCAACUAUGCCACGCAAAACGCGUGCUCCGUUGAAUGGAAUUUAUCAUG [C96G A98U C103G A113C G143A], the “polymerase ribozyme fitness (log ratio)” value is reported as no more than -4.2.
For GGAUCUUCUCGAUCUAACAAAAAAGACAAAUCUGCCACAAAGCUUGAGAGCAUCUUCGGAUGCAGAGGCGGCAGCCUUCGGUGGCGCGAUAGCGCAAACGUUCUCAACUAUGACACGCAAAACGAGUGCUCCGUUGAAUGGAGUUUAUCAUG [C96A C125A], the “polymerase ribozyme fitness (log ratio)” value was -0.718.
In the case of GGAUCUUCUCGAUCUAACAAAAAAGACAAAUCUGCCACAAAGCUUGAGAGCAUCUUCGGAUGCAGAGGCGGCAGCCUUCGGUGGCGCGAUAGCGCGAACGUUCUCAACUAUGACACGCAAAACGCGUGCUCCGUUGAAUGGCGUUUAUCAUG [C96G A142C], the “polymerase ribozyme fitness (log ratio)” value is reported as -1.82.
With GGAUCUUCUCGAUCUAACAAAAAAGACAAAUCUGCCACAAAGCUUGAGAGCAUCUUCGGAUGCAGAGGCGGCAGCCUUCGGUGGCGCGAUAGCGCGCACGUUCUCAACUAUGACACGCAAAACGGGUGUUCCGUUGAAUGGAGUUUAUCAUG [C96G A97C C125G C129U] the “polymerase ribozyme fitness (log ratio)” value was no more than -4.2.
With GGAUCUUCUCGAUCUAACAAAAAAGACAAAUCUGCCACAAAGCUUGAGAGCAUCUUCGGAUGCAGAGGCGGCAGCCUUCGGUGGCGCGAUAGCGCAAACGUUCUCAACUAUGACACGCAAAACGCAUGCUCCGUUGAAGGGAGUUUAUCACG [C96A G126A U139G U151C] the “polymerase ribozyme fitness (log ratio)” value was no more than -4.2.
For GGAUCUUCUCGAUCUAACAAAAAAGACAAAUCUGCCACAAAGCUUGAGAGCAUCUUCGGAUGCAGAGGCGGCAGCCUUCGGUGGCGCGAUAGCGCAAAGGUUCUCAACUAUGACUCGCAAAACGCGUGCUCCGUUGAAAGGAGUUUAUCAUG [C96A C99G A115U U139A], the “polymerase ribozyme fitness (log ratio)” value was no more than -4.2.
With GGAUCUUCUCGAUCUAACAAAAAAGACAAAUCUGCCACAAAGCUUGAGAGCAUCUUCGGAUGCAGAGGCGGCAGCCUUCGGUGGCGCGAUAGCGCAAACGUUCUCAACUAUGACACGCAAAACGCGCGCUCCGUUGAAUGGCGUUUAUCAUG [C96A U127C A142C] the “polymerase ribozyme fitness (log ratio)” value was no more than -4.2.
With GGAUCUUCUCGAUCUAACAAAAAAGACAAAUCUGCCACAAAGCUUGAGAGCAUCUUCGGAUGCAGAGGCGGCAGCCUUCGGUGGCGCGAUAGCGUCAACGUUCUCAACUAUGACACGCAAAACGCGUGCUCCGUUGAAUGAAGUUUAUCAUG [C95U G141A] the “polymerase ribozyme fitness (log ratio)” value was 0.432.
In the case of GGAUCUUCUCGAUCUAACAAAAAAGACAAAUCUGCCACAAAGCUUGAGAGCAUCUUCGGAUGCAGAGGCGGCAGCCUUCGGUGGCGCGAUAGCGCGAACGUUCUCAGCUAUGACACGCAAAACGCGUGCUCCGUUGAAUGGAGUUUAUCAUG [C96G A107G], the “polymerase ribozyme fitness (log ratio)” value is reported as no more than -4.2.
